From PubChem BioAssay AID330 (DTP/NCI, 2004)
Inconclusive results and toxic doses are left out. A number of entries come with more than one value. They are shown here; other results are not. An entry can have further records. Values given together differ for a reason that is not stated; some may be repeats, others may stem from another dose, organism or construct than stated. A tag in brackets gives the origin of a value. The letters are not those of the source and start again with each entry.

Test system: P388 leukemia ip, CD2F1 mice, survival T/C
Experiment: NCI In Vivo Anticancer Drug Screen. Data for tumor model P388 Leukemia (intraperitoneal) in CD2F1 (CDF1) mice
Details: endpoint: median survival time, higher = longer survival

## O=C1c2ccccc2C(=O)c2c(NCCNCCO)ccc(NCCNCCO)c21
dose: 80.0 mg/kg/injection, schedule: Q04DX003 (ip), vehicle: saline
  T/C: 102 % of control and 199 % of control

## CCC1(O)CC2CN(CCc3c([nH]c4ccccc34)C(C(=O)OC)(c3cc4c(cc3OC)N(C)C3C(O)(C(N)=O)C(O)C5(CC)C=CCN6CCC43C65)C2)C1 (stereo not given) (tested in a mixture with another compound)
dose: 0.38 mg/kg/injection, schedule: Q04DX003 (ip), vehicle: saline
  T/C: 113 % of control and 162 % of control
dose: 0.58 mg/kg/injection, schedule: Q04DX003 (ip), vehicle: saline
  T/C: 120 % of control, 162 % of control, 194 % of control

## CCOC(=O)C(CC(C)C)NC(=O)C(Cc1ccc(N(CCCl)CCCl)cc1)NC(C)=O (stereo not given)
dose: 32.0 mg/kg/injection, schedule: Q01DX009 (ip), vehicle: saline
  T/C: 200 % of control [sample A] and 100 % of control [sample B]

## COc1cccc2c1C(=O)c1c(O)c3c(c(O)c1C2=O)C[C@@](O)(/C(C)=N/NC(=O)c1ccc(S(N)(=O)=O)cc1)C[C@@H]3OC1CC(N)C(O)C(C)O1 (stereo not given in full)
dose: 9.4 mg/kg/injection, schedule: Q04DX003 (ip), vehicle: water
  T/C: 119 % of control and 166 % of control
